Test results reported in paper PMC4081100.
This is a selection; strong and weak results do not stand in their true shares. For some of these results: At the low end of the ranking, values are background and their order means little. The list shows a part of the results. For some of these results: The source does not settle which construct or isoform was used.

What was measured:
Test in all cases: universal protein binding microarray (PBM)
Conditions in all cases: transcription factors of Arabidopsis thaliana; high values mean tight binding; most listed sequences are background and not binding sites; double strand, one strand shown
GST-ANAC092(1-176) = biological target: T1, GST-ANAC092(1-176) (UniProt Q9FKA0)
T1 sequence: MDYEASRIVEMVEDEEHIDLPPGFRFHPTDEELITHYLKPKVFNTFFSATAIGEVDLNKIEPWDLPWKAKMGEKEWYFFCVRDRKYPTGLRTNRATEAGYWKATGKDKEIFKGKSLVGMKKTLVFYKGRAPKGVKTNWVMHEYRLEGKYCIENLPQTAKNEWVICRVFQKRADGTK

GST-NTL6(1-168) = GST-NTL6(1-168) (UniProt Q9SCK6)
GST-ANAC019 NAC domain = biological target: T2, GST-ANAC019 NAC domain (UniProt Q9C932)
T2 sequence: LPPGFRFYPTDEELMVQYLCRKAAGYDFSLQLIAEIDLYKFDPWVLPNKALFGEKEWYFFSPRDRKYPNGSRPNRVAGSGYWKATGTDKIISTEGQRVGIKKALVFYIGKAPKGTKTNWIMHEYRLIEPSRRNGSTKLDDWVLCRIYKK

GST-ANAC055(1-171) = biological target: T3, GST-ANAC055(1-171) (UniProt Q9LDY8)
T3 sequence: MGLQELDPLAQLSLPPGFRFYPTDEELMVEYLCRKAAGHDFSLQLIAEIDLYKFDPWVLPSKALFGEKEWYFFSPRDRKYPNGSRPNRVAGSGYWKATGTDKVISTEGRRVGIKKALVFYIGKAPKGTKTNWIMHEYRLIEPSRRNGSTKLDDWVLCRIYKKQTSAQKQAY

GST-ATAF1 NAC domain = biological target: T4, GST-ATAF1 NAC domain (UniProt Q39013)
T4 sequence: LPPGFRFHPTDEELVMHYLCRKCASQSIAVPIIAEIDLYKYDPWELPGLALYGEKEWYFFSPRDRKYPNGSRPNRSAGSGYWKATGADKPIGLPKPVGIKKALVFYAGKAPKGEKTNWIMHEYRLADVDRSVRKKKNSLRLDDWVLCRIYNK

[1] = biological target: T5, GST-ANAC092(1-285) full length (UniProt Q9FKA0)
T5 sequence: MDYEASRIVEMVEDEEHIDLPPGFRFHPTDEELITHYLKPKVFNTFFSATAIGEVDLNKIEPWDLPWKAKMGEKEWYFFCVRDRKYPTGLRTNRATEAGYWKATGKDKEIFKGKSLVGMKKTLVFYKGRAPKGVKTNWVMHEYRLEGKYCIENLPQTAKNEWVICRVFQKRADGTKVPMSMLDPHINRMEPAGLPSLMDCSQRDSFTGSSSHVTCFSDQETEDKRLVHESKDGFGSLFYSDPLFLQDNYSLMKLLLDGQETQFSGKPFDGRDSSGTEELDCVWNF

GST-NAP(1-166) = biological target: T6, GST-NAP(1-166) (UniProt O49255)
T6 sequence: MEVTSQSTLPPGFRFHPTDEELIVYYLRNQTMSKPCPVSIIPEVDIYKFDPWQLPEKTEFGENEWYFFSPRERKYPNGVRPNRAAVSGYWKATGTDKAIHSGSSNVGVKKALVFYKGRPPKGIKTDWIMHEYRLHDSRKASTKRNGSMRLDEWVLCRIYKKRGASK

GST-NST2(1-184) = biological target: T7, GST-NST2(1-184) (UniProt Q9M274)
T7 sequence: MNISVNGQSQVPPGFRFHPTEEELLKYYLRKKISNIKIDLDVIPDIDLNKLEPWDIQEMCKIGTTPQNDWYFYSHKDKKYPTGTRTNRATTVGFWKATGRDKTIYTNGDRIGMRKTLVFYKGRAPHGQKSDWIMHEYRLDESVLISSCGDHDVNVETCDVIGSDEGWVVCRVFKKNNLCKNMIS

GST-NTL8 NAC domain = biological target: T8, GST-NTL8 NAC domain (UniProt Q9XIN7)
T8 sequence: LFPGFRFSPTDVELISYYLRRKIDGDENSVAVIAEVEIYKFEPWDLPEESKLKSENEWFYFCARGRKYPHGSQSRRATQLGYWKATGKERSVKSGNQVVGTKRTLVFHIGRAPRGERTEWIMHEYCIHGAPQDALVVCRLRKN

GST-SND1(1-203) = biological target: T9, GST-SND1(1-203) (UniProt Q9LPI7)
T9 sequence: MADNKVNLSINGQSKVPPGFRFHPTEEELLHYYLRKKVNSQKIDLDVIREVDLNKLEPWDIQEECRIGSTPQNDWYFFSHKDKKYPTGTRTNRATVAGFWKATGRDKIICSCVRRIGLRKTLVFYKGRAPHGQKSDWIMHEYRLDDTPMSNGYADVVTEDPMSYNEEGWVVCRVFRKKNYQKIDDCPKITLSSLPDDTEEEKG

GST-VND3 NAC domain = biological target: T10, GST-VND3 NAC domain (UniProt Q9FH59)
T10 sequence: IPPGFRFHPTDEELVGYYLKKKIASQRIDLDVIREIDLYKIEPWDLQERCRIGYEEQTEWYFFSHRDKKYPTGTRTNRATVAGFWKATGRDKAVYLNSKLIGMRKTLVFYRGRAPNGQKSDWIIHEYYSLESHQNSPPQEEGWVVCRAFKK

GST-VND7 NAC domain = biological target: T11, GST-VND7 NAC domain (UniProt Q9C8W9)
T11 sequence: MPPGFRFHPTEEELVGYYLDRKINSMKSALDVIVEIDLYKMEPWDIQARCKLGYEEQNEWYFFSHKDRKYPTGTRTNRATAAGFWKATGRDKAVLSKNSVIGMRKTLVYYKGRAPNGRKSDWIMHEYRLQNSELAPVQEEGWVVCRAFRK

[2] = biological target: T12, GST-VOZ2 (Arabidopsis thaliana) (UniProt Q9SLB9)
T12 sequence: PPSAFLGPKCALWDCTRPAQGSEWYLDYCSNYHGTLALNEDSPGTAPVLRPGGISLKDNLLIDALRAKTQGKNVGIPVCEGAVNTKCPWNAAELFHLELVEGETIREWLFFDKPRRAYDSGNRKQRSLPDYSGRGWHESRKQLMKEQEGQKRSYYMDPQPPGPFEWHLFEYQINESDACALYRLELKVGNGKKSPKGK

GST-WRKY1(266-371) = GST-WRKY1(266-371) (UniProt Q9SI37)
Chain of UniProt Q9SI37 (Q9SI37 266-371): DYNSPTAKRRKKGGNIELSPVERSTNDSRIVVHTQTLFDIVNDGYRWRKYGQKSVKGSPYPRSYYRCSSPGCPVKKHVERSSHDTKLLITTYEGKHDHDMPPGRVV

Sequence	binding signal (GST-ANAC092(1-176)) [E-score]	binding signal (GST-NTL6(1-168)) [E-score]	binding signal (GST-ANAC019 NAC domain) [E-score]	binding signal (GST-ANAC055(1-171)) [E-score]	binding signal (GST-ATAF1 NAC domain) [E-score]	binding signal [1] [E-score]	binding signal (GST-NAP(1-166)) [E-score]	binding signal (GST-NST2(1-184)) [E-score]	binding signal (GST-NTL8 NAC domain) [E-score]	binding signal (GST-SND1(1-203)) [E-score]	binding signal (GST-VND3 NAC domain) [E-score]	binding signal (GST-VND7 NAC domain) [E-score]	binding signal [2] [E-score]	binding signal (GST-WRKY1(266-371)) [E-score]
CGGTCAGA	-0.151	-0.21	-0.0727	-0.292	-0.248	-0.272	-0.1	-0.201	-0.0759	-0.165	-0.161	-0.105	-0.108	
CTGACCGC	0.0725	-0.0105	-0.0156	-0.105	-0.132	-0.159	-0.0351	-0.00185	0.0212	-0.0625	-0.0998	-0.0223	0.12	
GTCAATGA	-0.0541	0.0646	-0.0304	-0.0561	-0.0238	0.0425	-0.0799	-0.00768	-0.0366	0.0462	0.0462	-0.0995	0.0283	
GAAGGTAA					0.22	0.25	0.0143			0.227	0.148	0.141	0.0928	-0.0327
AGAGGTCA	-0.0759	-0.044	-0.0933	-0.00514	-0.122	-0.0551	-0.0415	-0.0796	-0.00114	-0.133	-0.108	-0.0424	-0.0742	
CGATGACC	-0.127	-0.0219	-0.158	-0.125	-0.238	-0.0953	-0.113	-0.167	-0.0881	-0.115	-0.157	-0.0842	-0.0687	
GCTTGACC	0.0284	-0.052	-0.122	-0.114	-0.154	-0.089	-0.0454	-0.0802	0.02	-0.0411	-0.161	-0.0249	-0.0454	
GGAAGTCA	-0.0331	0.132	0.0521	0.0264	0.0278	0.0837	0.02	0.0436		0.0478	-0.0709	0.0473	-0.0362	
TCGTCAAA	-0.0638	0.0382	0.0342	0.0878	0.0946	-0.00687	-0.0206	0.0744	-0.0352	0.0486	0.00649	-0.0877	0.16	
CGGTCAAG	-0.0274	-0.0513	-0.0324	-0.152	-0.276	-0.0599	-0.0583	-0.0889	-0.0426	-0.0925	-0.204	-0.171	-0.0724	
CAGGTCAA	-0.0316	0.0272	-0.0122	0.0027	-0.159	-0.154	-0.00966	-0.00039	-0.0545	-0.137	-0.156	-0.0374	-0.0659	
CCGGTCAG	-0.145	-0.181	-0.084	-0.29	-0.21	-0.232	-0.13	-0.166	-0.0522	-0.203	-0.268	-0.198	-0.0909	
GGTCAGCA	-0.131	-0.176	-0.136	-0.194	-0.191	-0.199	-0.0255	-0.0501	-0.065	-0.07	-0.0914	-0.192	-0.132	
ATGGTCAG	-0.209	-0.172	-0.0403	-0.0765	-0.199	-0.0404	-0.0671	-0.139	-0.145	-0.0826	-0.0993	-0.0469	-0.0457	
CCGTCAAC	-0.0273	-0.117	0.0816	-0.0299	0.0117	-0.106	0.0218	-0.155	-0.146	-0.0269	-0.0797	-0.0789	0.0288	
CGCTGACC	-0.0824	-0.0487	0.00274	-0.151	-0.122	-0.159	-0.051	-0.173	0.024	-0.0937	-0.153	-0.0342	0.0216	
GAGTCAAC	-0.0278	0.0172	0.14	-0.135	-0.0677	-0.174	-0.0642	-0.0781	-0.0617	-0.0459	-0.055	-0.0337	-0.122	
AGTCAGAC	-0.0474	-0.163	0.0719	0.0399	0.0392	-0.122	-0.0938	-0.151	-0.0962	-0.125	0.0301	0.0119	-0.0972	
AGGGTCAG	-0.106	-0.113	-0.103	-0.252	-0.203	-0.13	-0.0956	-0.151	-0.0281	-0.0415	-0.151	-0.191	-0.0594	
GGGTTGAC	-0.00487	-0.0741	0.0444	-0.185	-0.0694	-0.0267	0.0845	-0.151	-0.0132	0.00434	-0.135	-0.112	0.117	
CGGGTCAG	-0.0773	-0.175	-0.135	-0.242	-0.268	-0.24	-0.14	-0.147	0.0402	-0.0786	-0.235	-0.0849	-0.0846	
CTGACCCA	-0.0868	-0.0281	-0.131	-0.0559	-0.0666	-0.174	-0.195	0.0484	0.00513	-0.118	-0.0707	-0.139	0.0751	
AGTCTTCG	0.0396	-0.00642	-0.0496	-0.0577	-0.0171	-0.0974	-0.222	-0.0263	0.0456	-0.0186	-0.00458	0.0363	-0.123	
AGGTTGAC	-0.0083	0.0195	-0.157	-0.0176	0.13	0.00298	-0.14	-0.0524	-0.107	-0.0802	0.0206	-0.101	0.0161	
ATGCTGAC	-0.0602	0.0493	-0.149	0.0377	0.0238	3e-05	-0.043	-0.0414	-0.0521	0.0028	-0.0556	-0.0548	-0.0438	
